Laboratory results taken from the supplement of paper PMC11417369.
± gives the standard deviation of the averaged measurements. Some of the results follow.

test system: PfAP2-I AP2 domain 3 (GST-tagged); experiment: gcPBM binding intensity (ln(normalized median fluorescence intensity)); higher = stronger DNA binding
How it was run: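 Binding intensity is the highest Masliner-normalised natural-log median intensity over replicate spots in either probe orientation. To obtain it, GST-tagged P. falciparum DNA-binding domains made in E. coli were incubated for 1 h on an Agilent 4 × 180k array of primer-extended double-stranded 36-bp intergenic genomic probes plus negative controls. Detection used Alexa488 anti-GST antibody with scanning at 488 nm.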

| Sequence | gcPBM binding intensity (ln) |
| --- | --- |
| AAAAAATATTATATATGTACATAATATTTTTTTTTT [XGTACX_site5909] | 7.47 ± 0.39 |
| TTTAATCAAATTAAAAGTACAGAATTGTTCATGTAG [XGTACX_site1229] | 7.67 ± 0.57 |
| ATATATATATATTCCACACACACACTAATAAAAAAA [CACACA_site9214] | 9.29 ± 0.12 |
| AATATATAAGTGTTGTGTACTAAAGTATTTTCCTAT [XGTACX_site1622] | 7.88 ± 0.54 |
| AAAAAAAAAAGACACACACACATATTTATTTATATA [CACACA_site6484] | 7.59 ± 0.35 |
| AGTAGATATAAAAGGAGTACACATATATATATAAAT [XGTACX_site4375] | 8.14 ± 0.44 |
| CATATACAGAAACACACACACACATAAATAAATATA [CACACA_site1343] | 7.7 ± 0.28 |
| TTTAATTAAATATGTATATATATTCATGTATGTATA [GTGCAC_negctrl_site14] | 7.68 ± 0.26 |
| AATATGGTTATATATATATATATATATATATATATT [GTGCAC_negctrl_site566] | 8.62 ± 0.49 |
| CCTATCCATACATATACACACATATCTATTTATATA [CACACA_site1669] | 8.09 ± 0.68 |
| TTTGAAATAAATAATGCACACTCTACATATATACGT [CACACA_site2244] | 11.1 ± 0.61 |
| CAACATTTATATTTTACACACATCATTTAAGCGCTT [CACACA_site992] | 7.71 ± 0.68 |
| TTATTATATAAAATAAATAACAAAAAAAATAAAATA [GTGCAC_negctrl_site548] | 7.61 ± 0.42 |
| ATTGTTTTATATAGAACACACATAAAAATCTATATG [CACACA_site6681] | 7.65 ± 0.47 |
| AAATAAAATACAAGTTGTACTATAAGCTTTTTATAT [XGTACX_site8021] | 7.67 ± 0.64 |
| AAAAGAAATTTGGGCACATGCGAATTTATAATTTAT [TGCATGCA_site960] | 7.85 ± 0.78 |
| TAAAGTATTACAACCACACACACACCGATATATTAT [CACACA_site9382] | 7.95 ± 0.42 |
| TAATTTAATAATTAGACACACATGTCTAAAATAAAA [CACACA_site2527] | 7.69 ± 0.48 |
| TATATATATATATATACATGCATATTTTTTATTTTT [TGCATGCA_site464] | 9.14 ± 0.21 |
| TGTCTTATATATATTACACACTATATGAAAAAATAT [CACACA_site1487] | 8.24 ± 0.6 |
| TATATTTATCTGATAACACACATAAATTAGACATTT [CACACA_site6887] | 7.6 ± 0.37 |
| TTTTTTATATATATTTGTACATATTGCATGTTCCCT [XGTACX_site7143] | 8.19 ± 1.1 |

| Sequence | gcPBM binding intensity (ln) |
| --- | --- |
| ATTTTTTTTTTTTTTTTTTTTGCACCATAAAATAAT [CACACA_negctrl_site1324] | 11.2 ± 0.56 |
| TATATACTCAAACACACACACACATACACAGACATA [CACACA_site5025] | 7.97 ± 0.13 |
| ATTTTGACATTATATAGTACATATAATTTACATTTA [XGTACX_site3024] | 8.06 ± 0.23 |
| TATATATATATGTGTACACATTTGTCAGATTATATA [CACACA_site4813] | 9.4 ± 0.24 |
| TATATATTCTTTTAATGTACATATTGTATTATATCC [XGTACX_site4501] | 7.86 ± 0.38 |
| ATATATTTAAACAAAAGTACAAATCATAAATTCAAG [XGTACX_site3633] | 7.45 ± 0.44 |
| ATTTTTTAAAAAGTAACACACACTCTTATATATAAT [CACACA_site9206] | 7.84 ± 0.64 |
| TCTTTATCTTCTTATACACACATTTATTAAAAAAAA [CACACA_site445] | 8.24 ± 0.46 |
| TGACATAAAAAATATACACACTATAATATTTATACT [CACACA_site6776] | 7.62 ± 0.42 |
| TATATATATGAGTATACACACCTGATAAAGGTATAT [CACACA_site5462] | 8.05 ± 0.7 |
| GATTACTAGAAATGCACACACTGATAAAATAAGGAA [CACACA_site6131] | 9.29 ± 0.085 |
| TTAAACTTGAAACACACACACACACCGATATAAAAA [CACACA_site4578] | 8.06 ± 0.45 |
| AGATTGGAACATTAAAGTACTTACTTTTTTTTTTTT [XGTACX_site8017] | 7.54 ± 0.39 |
| AGAAATATATCTATTTGTCCGTATATTCATATTTAT [XGTACX_site8427] | 7.61 ± 0.69 |
| ATAAAAATATTGTCTAGTACATATTTATAATAAAAA [XGTACX_site7523] | 7.58 ± 0.35 |
| GTGTAAATATAATTAGTTTCACAAAACAAATATTTA [CACACA_negctrl_site717] | 7.5 ± 0.4 |
| ATGGGTATTAAGTGTACACATATAGTGTATTTTGTT [CACACA_site4452] | 8.04 ± 0.49 |
| AGGCACAAAATTAAATGTACATATATATATATATAT [XGTACX_site3323] | 9.38 ± 0.26 |
| AAAAAGAAAAATTGCACACACTTATAAAAATATACG [CACACA_site6074] | 8.22 ± 0.36 |
| TATATAAGAATATATACACACATATATGTATATATA [CACACA_site2178] | 7.42 ± 0.35 |
| TTTTACAATGAAATATGTACTTAAATGTCCAAATTC [XGTACX_site781] | 7.49 ± 0.49 |
| TTAACCATTAATTCTCTACACACTTTTATTTTATTT [CACACA_site8522] | 7.84 ± 0.8 |
